{"source": "the supplement of paper PMC8728848", "assay_in_all_cases": "glycan array binding signal (z-score within array); higher = stronger binding", "details_in_all_cases": "glycan notation: IUPAC condensed, linker removed", "key": {"[1]": {"molecular_target": "Gal(a1-3)Gal(b1-4)GlcNAc(b1-2)Man", "outline": "(§1)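 Arrays were curated from the Consortium for Functional Glycomics database, 3228 in total, and kept only where the protein sequence was available. Binding is expressed as a within-array Z-score. This score was averaged across arrays of the same protein sequence at different concentrations or buffers and across linkers, and negative values can be read as non-binding.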"}, "[2]": {"molecular_target": "Gal(a1-3)Gal(b1-4)GlcNAc(b1-2)Man(a1-3)[Gal(a1-3)Gal(b1-4)GlcNAc(b1-2)Man(a1-6)]Man(b1-4)GlcNAc(b1-4)GlcNAc", "outline": "as §1"}, "[3]": {"molecular_target": "Gal(a1-3)Gal(b1-4)GlcNAc(b1-3)GalNAc", "outline": "as §1"}, "[4]": {"molecular_target": "Gal(a1-3)Gal(b1-4)GlcNAc(b1-6)GalNAc", "outline": "as §1"}, "[5]": {"molecular_target": "Gal(a1-3)Gal(b1-4)[Fuc(a1-3)]GlcNAc", "outline": "as §1"}, "[6]": {"molecular_target": "Gal(a1-3)Gal(b1-4)[Fuc(a1-3)]GlcNAc(b1-2)Man(a1-3)[Gal(a1-3)Gal(b1-4)[Fuc(a1-3)]GlcNAc(b1-2)Man(a1-6)]Man(b1-4)GlcNAc(b1-4)GlcNAc", "outline": "as §1"}, "[7]": {"molecular_target": "Gal(a1-3)GalNAc", "outline": "as §1"}, "[8]": {"molecular_target": "Gal(a1-3)[Gal(a1-4)]Gal(b1-4)GlcNAc", "outline": "as §1"}, "[9]": {"molecular_target": "Gal(a1-4)Gal(b1-3)GlcNAc(b1-2)Man(a1-3)[Gal(a1-4)Gal(b1-3)GlcNAc(b1-2)Man(a1-6)]Man(b1-4)GlcNAc(b1-4)GlcNAc", "outline": "as §1"}, "[10]": {"molecular_target": "Gal(a1-4)Gal(b1-4)Glc", "outline": "as §1"}, "[11]": {"molecular_target": "Gal(a1-4)Gal(b1-4)GlcNAc", "outline": "as §1"}, "[12]": {"molecular_target": "Gal(a1-4)Gal(b1-4)GlcNAc(b1-2)Man(a1-3)[Gal(a1-4)Gal(b1-4)GlcNAc(b1-2)Man(a1-6)]Man(b1-4)GlcNAc(b1-4)GlcNAc", "outline": "as §1"}, "[13]": {"molecular_target": "Gal(a1-4)Gal(b1-4)GlcNAc(b1-3)Gal(b1-4)Glc", "outline": "as §1"}, "[14]": {"molecular_target": "Gal(a1-4)GlcNAc", "outline": "as §1"}, "[15]": {"molecular_target": "Gal(a1-6)Glc", "outline": "as §1"}, "[16]": {"molecular_target": "Gal(b1-2)Gal", "outline": "as §1"}, "[17]": {"molecular_target": "Gal(b1-3)Gal", "outline": "as §1"}, "[18]": {"molecular_target": "Gal(b1-3)Gal(b1-4)GlcNAc", "outline": "as §1"}, "[19]": {"molecular_target": "Gal(b1-3)GalNAc", "outline": "as §1"}, "[20]": {"molecular_target": "Gal(b1-3)GalNAc(a1-3)[Fuc(a1-2)]Gal(b1-4)Glc", "outline": "as §1"}, "[21]": {"molecular_target": "Gal(b1-3)GalNAc(a1-3)[Fuc(a1-2)]Gal(b1-4)GlcNAc", "outline": "as §1"}, "[22]": {"molecular_target": "Gal(b1-3)GalNAc(b1-3)Gal", "outline": "as §1"}, "[23]": {"molecular_target": "Gal(b1-3)GalNAc(b1-3)Gal(a1-4)Gal(b1-4)Glc", "outline": "as §1"}, "[24]": {"molecular_target": "Gal(b1-3)GalNAc(b1-4)Gal(b1-4)Glc", "outline": "as §1"}, "[25]": {"molecular_target": "Gal(b1-3)GalNAc(b1-4)[Neu5Ac(a2-3)]Gal(b1-4)Glc", "outline": "as §1"}, "[26]": {"molecular_target": "Gal(b1-3)GlcNAc", "outline": "as §1"}, "[27]": {"molecular_target": "Gal(b1-3)GlcNAc(a1-3)Gal(b1-4)GlcNAc", "outline": "as §1"}, "[28]": {"molecular_target": "Gal(b1-3)GlcNAc(a1-6)Gal(b1-4)GlcNAc", "outline": "as §1"}, "[29]": {"molecular_target": "Gal(b1-3)GlcNAc(b1-2)Man", "outline": "as §1"}, "[30]": {"molecular_target": "Gal(b1-3)GlcNAc(b1-2)Man(a1-3)[Gal(b1-3)GlcNAc(b1-2)Man(a1-6)]Man(b1-4)GlcNAc(b1-4)GlcNAc", "outline": "as §1"}, "[31]": {"molecular_target": "Gal(b1-3)GlcNAc(b1-2)Man(a1-3)[Gal(b1-3)GlcNAc(b1-2)Man(a1-6)]Man(b1-4)GlcNAc(b1-4)[Fuc(a1-6)]GlcNAc", "outline": "as §1"}, "[32]": {"molecular_target": "Gal(b1-3)GlcNAc(b1-2)Man(a1-3)[GlcNAc(b1-4)][Gal(b1-3)GlcNAc(b1-2)Man(a1-6)]Man(b1-4)GlcNAc(b1-4)GlcNAc", "outline": "as §1"}, "[33]": {"molecular_target": "Gal(b1-3)GlcNAc(b1-2)[Gal(b1-3)GlcNAc(b1-6)]Man(a1-6)[Gal(b1-3)GlcNAc(b1-2)Man(a1-3)]Man(b1-4)GlcNAc(b1-4)GlcNAc", "outline": "as §1"}, "[34]": {"molecular_target": "Gal(b1-3)GlcNAc(b1-3)Gal(b1-3)GlcNAc", "outline": "as §1"}, "[35]": {"molecular_target": "Gal(b1-3)GlcNAc(b1-3)Gal(b1-4)Glc", "outline": "as §1"}, "[36]": {"molecular_target": "Gal(b1-3)GlcNAc(b1-3)Gal(b1-4)GlcNAc", "outline": "as §1"}, "[37]": {"molecular_target": "Gal(b1-3)GlcNAc(b1-3)Gal(b1-4)GlcNAc(b1-2)Man(a1-3)[Gal(b1-3)GlcNAc(b1-3)Gal(b1-4)GlcNAc(b1-2)Man(a1-6)]Man(b1-4)GlcNAc(b1-4)GlcNAc", "outline": "as §1"}, "[38]": {"molecular_target": "Gal(b1-3)GlcNAc(b1-3)Gal(b1-4)GlcNAc(b1-2)[Gal(b1-3)GlcNAc(b1-3)Gal(b1-4)GlcNAc(b1-6)]Man(a1-6)[Gal(b1-3)GlcNAc(b1-3)Gal(b1-4)GlcNAc(b1-2)Man(a1-3)]Man(b1-4)GlcNAc(b1-4)[Fuc(a1-6)]GlcNAc", "outline": "as §1"}, "[39]": {"molecular_target": "Gal(b1-3)GlcNAc(b1-3)Gal(b1-4)GlcNAc(b1-3)Gal(b1-4)GlcNAc(b1-2)[Gal(b1-3)GlcNAc(b1-3)Gal(b1-4)GlcNAc(b1-3)Gal(b1-4)GlcNAc(b1-6)]Man(a1-6)[Gal(b1-3)GlcNAc(b1-3)Gal(b1-4)GlcNAc(b1-3)Gal(b1-4)GlcNAc(b1-2)Man(a1-3)]Man(b1-4)GlcNAc(b1-4)[Fuc(a1-6)]GlcNAc", "outline": "as §1"}, "[40]": {"molecular_target": "Gal(b1-3)GlcNAc(b1-3)Gal(b1-4)GlcNAc(b1-6)[Gal(b1-3)GlcNAc(b1-3)]Gal(b1-4)Glc", "outline": "as §1"}, "[41]": {"molecular_target": "Gal(b1-3)GlcNAc(b1-3)Gal(b1-4)[Fuc(a1-3)]GlcNAc", "outline": "as §1"}, "[42]": {"molecular_target": "Gal(b1-3)GlcNAc(b1-3)Gal(b1-4)[Fuc(a1-3)]GlcNAc(b1-6)[Gal(b1-3)GlcNAc(b1-3)]Gal(b1-4)Glc", "outline": "as §1"}, "[43]": {"molecular_target": "Gal(b1-3)GlcNAc(b1-3)GalNAc", "outline": "as §1"}, "[44]": {"molecular_target": "Gal(b1-3)GlcNAc(b1-6)Gal(b1-4)GlcNAc", "outline": "as §1"}, "[45]": {"molecular_target": "Gal(b1-3)GlcNAc(b1-6)GalNAc", "outline": "as §1"}}, "note": "The list shows a part of the results.", "data": [{"binder": "Microvirin-2 (Microcystis aeruginosa) (protein) MPNFSHTCSSINYDPDSTILSAECQARDGEWLPTELRLSDHIGNIDGELQFGDQNFQETCQDCHLEFGDGEQSVWLVCTCQTMDGEWKSTQILLDSQIDNNDSQLEIGGSMPNFSHTCSSINYDPDSTILSAECQARDGEWLPTELRLSDHIGNIDGELQFGDQNFQETCQDCHLEFGDGEQSVWLVCTCQTMDGEWKSTQILLDSQIDNNDSQLEIG", "values": [{"measurement": "glycan array binding signal (z-score)", "setting": "[1]", "value": -0.124}, {"measurement": "glycan array binding signal (z-score)", "setting": "[2]", "value": -0.072}, {"measurement": "glycan array binding signal (z-score)", "setting": "[3]", "value": -0.139}, {"measurement": "glycan array binding signal (z-score)", "setting": "[4]", "value": -0.134}, {"measurement": "glycan array binding signal (z-score)", "setting": "[5]", "value": -0.137}, {"measurement": "glycan array binding signal (z-score)", "setting": "[6]", "value": -0.112}, {"measurement": "glycan array binding signal (z-score)", "setting": "[7]", "value": -0.125}, {"measurement": "glycan array binding signal (z-score)", "setting": "[8]", "value": -0.137}, {"measurement": "glycan array binding signal (z-score)", "setting": "[9]", "value": -0.087}, {"measurement": "glycan array binding signal (z-score)", "setting": "[10]", "value": -0.135}, {"measurement": "glycan array binding signal (z-score)", "setting": "[11]", "value": -0.126}, {"measurement": "glycan array binding signal (z-score)", "setting": "[12]", "value": -0.08}, {"measurement": "glycan array binding signal (z-score)", "setting": "[13]", "value": -0.14}, {"measurement": "glycan array binding signal (z-score)", "setting": "[14]", "value": -0.128}, {"measurement": "glycan array binding signal (z-score)", "setting": "[15]", "value": -0.138}, {"measurement": "glycan array binding signal (z-score)", "setting": "[16]", "value": -0.122}, {"measurement": "glycan array binding signal (z-score)", "setting": "[17]", "value": -0.144}, {"measurement": "glycan array binding signal (z-score)", "setting": "[18]", "value": -0.134}, {"measurement": "glycan array binding signal (z-score)", "setting": "[19]", "value": -0.135}, {"measurement": "glycan array binding signal (z-score)", "setting": "[20]", "value": -0.12}, {"measurement": "glycan array binding signal (z-score)", "setting": "[21]", "value": -0.13}, {"measurement": "glycan array binding signal (z-score)", "setting": "[22]", "value": -0.119}, {"measurement": "glycan array binding signal (z-score)", "setting": "[23]", "value": -0.124}, {"measurement": "glycan array binding signal (z-score)", "setting": "[24]", "value": -0.142}, {"measurement": "glycan array binding signal (z-score)", "setting": "[25]", "value": -0.132}, {"measurement": "glycan array binding signal (z-score)", "setting": "[26]", "value": -0.129}, {"measurement": "glycan array binding signal (z-score)", "setting": "[27]", "value": -0.139}, {"measurement": "glycan array binding signal (z-score)", "setting": "[28]", "value": -0.132}, {"measurement": "glycan array binding signal (z-score)", "setting": "[29]", "value": -0.112}, {"measurement": "glycan array binding signal (z-score)", "setting": "[30]", "value": -0.088}, {"measurement": "glycan array binding signal (z-score)", "setting": "[31]", "value": -0.093}, {"measurement": "glycan array binding signal (z-score)", "setting": "[32]", "value": 0.148}, {"measurement": "glycan array binding signal (z-score)", "setting": "[33]", "value": 0.082}, {"measurement": "glycan array binding signal (z-score)", "setting": "[34]", "value": -0.13}, {"measurement": "glycan array binding signal (z-score)", "setting": "[35]", "value": -0.131}, {"measurement": "glycan array binding signal (z-score)", "setting": "[36]", "value": -0.149}, {"measurement": "glycan array binding signal (z-score)", "setting": "[37]", "value": -0.056}, {"measurement": "glycan array binding signal (z-score)", "setting": "[38]", "value": 0.394}, {"measurement": "glycan array binding signal (z-score)", "setting": "[39]", "value": 0.408}, {"measurement": "glycan array binding signal (z-score)", "setting": "[40]", "value": -0.146}, {"measurement": "glycan array binding signal (z-score)", "setting": "[41]", "value": -0.125}, {"measurement": "glycan array binding signal (z-score)", "setting": "[42]", "value": -0.137}, {"measurement": "glycan array binding signal (z-score)", "setting": "[43]", "value": -0.139}, {"measurement": "glycan array binding signal (z-score)", "setting": "[44]", "value": -0.135}, {"measurement": "glycan array binding signal (z-score)", "setting": "[45]", "value": -0.143}]}]}
